± gives the standard deviation of the averaged measurements. The list shows a part of the results.
Each sequence was assayed on PfAP2-EXP AP2 domain (GST-tagged) (assay: gcPBM binding intensity (ln(normalized median fluorescence intensity)); higher = stronger DNA binding).
In short: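 The highest Masliner-normalised natural-log median intensity across replicate spots of either probe orientation is reported as binding intensity. GST-tagged P. falciparum DNA-binding domains expressed in E. coli were applied for 1 h to an Agilent 4 × 180k array of primer-extended double-stranded 36-bp intergenic genomic probes plus negative controls, and bound protein was detected with Alexa488 anti-GST antibody and scanned at 488 nm.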

Row | Sequence | gcPBM binding intensity (ln)
1 | ATATAAATTGGCAATAGTACATAAAGGCATAGAAAG [XGTACX_site2674] | 9.21 ± 0.41
2 | GTATATATGTATATGTGTACACATATTCTTAACTCA [XGTACX_site309] | 8.88 ± 0.33
3 | TTAATTTATTATCTTTGTACACAATTAAAAAAAAAA [XGTACX_site3469] | 8.28 ± 0.38
4 | TTTTATTATAATAATTGTACAAAAATTATTTAATAT [XGTACX_site6054] | 8.19 ± 0.36
5 | ATAAATATACATTATACCGACCATGTGGATATTATA [XGTACX_negctrl_site241] | 8.43 ± 0.49
6 | AAAAAAAAAAAAAAAAGTACAAGCATTGCGTTTTAA [XGTACX_site6075] | 8.83 ± 0.35
7 | AAAAAAAAAAAAAAAACACACATACACGCACGCACA [CACACA_site7569] | 8.87 ± 0.15
8 | GTATATATATACCATTGTACTTTCGTAAAAATATTT [XGTACX_site4846] | 8.83 ± 0.48
9 | AGAAAAAAAAAAAAAAAAATATATATATATATATAT [TGCATGCA_negctrl_site411] | 10.1 ± 0.36
10 | ATATATCAATATGGAATATATATATATATATATATA [TGCATGCA_negctrl_site502] | 9.97 ± 0.47
11 | TTTCTATTTATTAATACATGCAAAATAAAGTAAAGT [TGCATGCA_site209] | 9.14 ± 0.13
12 | TTTTGGTTTTGTTCTACACACATAAAAAAAAAAAAG [CACACA_site2276] | 8.38 ± 0.4
13 | ATATATATAAATAAATGTACATAAATAATATATTAT [XGTACX_site5419] | 8.86 ± 0.41
14 | TATATATATATATATATATTTATGTATTTATTTAAT [TGCATGCA_negctrl_site179] | 10.1 ± 0.34
15 | TTATTTTTATATTTTAATTTTAAAAAAATTTTAATT [CACACA_negctrl_site777] | 8.04 ± 0.46
16 | ATTATACATATTATATGTACATATATAAATAAATAA [XGTACX_site7076] | 8.58 ± 0.31
17 | ATTTTTTATGTTAATGCATGCTCATGTGTATTTCAT [TGCATGCA_site751] | 9.46 ± 0.67
18 | AAAGTAATAATGATTTGTACATATATATATATATAT [XGTACX_site8821] | 10.1 ± 0.35
19 | TAATTAGATTATTTTTGTACATATTATTATAGGTTA [XGTACX_site2077] | 8.34 ± 0.38
20 | AGATATTATAAAATATGTACATATATATATATATAT [XGTACX_site2088] | 10.1 ± 0.33
21 | AAATATAACATCATCACACACATATACTTTATATGC [CACACA_site1126] | 8.56 ± 0.3
22 | AGCTTCATATTATGGAGTACTATTAAAAATAAATAA [XGTACX_site2649] | 8.46 ± 0.35

Row | Sequence | gcPBM binding intensity (ln)
23 | TTATCTTTTTTCGTTTGTACGTAACCATATTACTAT [XGTACX_site8853] | 9.02 ± 0.32
24 | AAAAATAATTATTCGTGTACAAAAAAAAAAATATAA [XGTACX_site439] | 8.46 ± 0.32
25 | ATGCAAATGTGCATCACACACACTAATGGGTATGTA [CACACA_site2893] | 8.39 ± 0.38
26 | GGAATATATATACATACACACATATATATATATATA [CACACA_site1666] | 10.1 ± 0.33
27 | AACAAATTTATCCAAAGTACAAAATATCATTTCTTA [XGTACX_site4543] | 8.07 ± 0.42
28 | ATTATAATTATATATGCATGTAGCATTTTCTATTTT [TGCATGCA_site66] | 8.74 ± 0.46
29 | AACAACATGTAGACGCGTACCAACATCAGATCCTAT [XGTACX_site4071] | 8.79 ± 0.52
30 | TTCTTTATTTATCATTATAAGAAGAGTTGATTTGTT [XGTACX_negctrl_site555] | 8.38 ± 0.43
31 | TTATAATATAGCAATTATTAAATAGGATCAAATGAA [CACACA_negctrl_site632] | 8.46 ± 0.46
32 | GGAAAATCTAATCATTTAATATTTATTTATCTAATT [GTGCAC_negctrl_site553] | 8 ± 0.4
33 | ATTTTATATAATACATGTACAAAAGTTTAAATTTAT [XGTACX_site6196] | 8.79 ± 0.22
34 | TATAAATACTAAAAAAGTACAAAATTTCATAAAAAA [XGTACX_site2709] | 8.57 ± 0.31
35 | TTTTTTTTTTTATTTGCATGCGGTGTTCATAATATT [TGCATGCA_site199] | 9.58 ± 0.3
36 | CGTTCATATTATTATAGTACATATTATTATAGTTTT [XGTACX_site1550] | 8.61 ± 0.4
37 | TATTTGTAAATTATTTGGGTGTGTAGGGGATATTCT [XGTACX_negctrl_site204] | 9.26 ± 0.66
38 | AGAAGAAAAGTAAAAAGTACATTATTCATGGCCTAT [XGTACX_site5601] | 8.37 ± 0.33
39 | TTGGTGGATAAATTTACACACAATAACTTTCGTTCA [CACACA_site6358] | 8.46 ± 0.3
40 | ATATAAGAAATAAAGAAAAATGTGTTTTTTTTTTTT [XGTACX_negctrl_site396] | 8.13 ± 0.43
41 | AAACAAATATTTATCACAATGTCATTTTGTTAACAT [GTGCAC_negctrl_site171] | 8.66 ± 0.42
42 | TTTTTCCTAACATATTATATACTTGAATATTTATTA [CACACA_negctrl_site156] | 8.44 ± 0.29
43 | TTTATCTTATTTTTATGTACTTATTTTATAAAAAAA [XGTACX_site7730] | 8.83 ± 0.21
44 | AGAGCTGTTTTTTATGCATGTAGTTTAGAAAATACA [TGCATGCA_site257] | 8.69 ± 0.33

From the supplement of paper PMC11417369
